Test results from PubChem BioAssay AID1508624 (National Center for Advancing Translational Sciences (NCATS), 2021).
The whole screen tested about 48,000 compounds, of which about 120 (0.25%) were called active. Not shown: some 4% with an inconclusive outcome. Calls come from the whole dose curve; as a rule, active = well fitted activation curve with a large enough effect; inconclusive = small, poorly fitted or top-dose-only effect, or another doubt; inactive = no such curve, though single readings can be large or run the other way. Some of the results follow.

Test: Primary qHTS for Identification of Small Molecule Activators of Huntingtin-Antisense Promoter Activity; note: nearly all actives have a fitted effect of over 55% in size
Details: HEK293 HTT-AS promoter firefly luciferase reporter (activity 0% = vehicle and -100% = no light), 24 h; series mostly up to 57.5 µM; activity change, positive = activation: at the top concentration
Procedure, shortened: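 HEK293 cells carrying firefly luciferase reporters were seeded at 2,500 per well in Opti-MEM and cultured for 24 h. They were then treated with compounds at up to 57.5 uM final for 24 h at 37 degrees C before Dual-Glo luminescence readout.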

Activity change, positive = activation, inactive:
COc1ccc(CNC(=O)c2c(Nc3ccccc3C)sc(C(=O)c3ccccc3)c2N)cc1 -45.4%, COc1cc2[nH]c(=O)n(CCCC(=O)NCc3ccccc3)c(=O)c2cc1OC -7.98%, CCc1ccc(NC(=O)CCCc2nc(-c3ccco3)no2)cc1 -12.3%, CC1CN(C(=O)N2CCC(C(=O)NCc3ccco3)CC2)c2cc(Cl)ccc2O1 (configuration not stated) -5.95%, Cc1ccc(NC(=O)CN2C(=O)CCc3cc(S(=O)(=O)N4CCCCC4)ccc32)cc1N(C)C -35.5%, COc1ccc(NC(=O)c2cc(-c3ccccc3O)no2)cc1 9.77%, CCOC(=O)c1cccc(N)c1 2.4%, CCOc1ccc(NC(=O)CNS(=O)(=O)c2ccc(Br)s2)cc1 -41.3%, CCOC(=O)c1sc2ccccc2c1S(=O)(=O)N1CCN(c2ccccc2)CC1 -36.1%, COc1ccc(-c2nc3scc(CCNC(=O)Cc4ccc(F)cc4)n3n2)cc1 -15.4%, CCC(C)NC(=O)c1ccc2nc(Cc3ccccc3)oc2c1 (configuration not stated) 4.45%, O=C(Nc1cccc2c(=O)cc(-c3nn[nH]n3)oc12)c1ccc(OCCCCc2ccccc2)cc1 -31.1%, O=C(Nc1cc(Cl)cc(Cl)c1)c1ccc(F)c(S(=O)(=O)NCc2ccccc2Cl)c1 -31.9%, CCN(c1ccccc1)S(=O)(=O)c1nnc(NC(=O)c2ccco2)s1 -26.4%, CCOc1ccc(NS(=O)(=O)c2ccc3nc(-c4ccccc4)[nH]c3c2)cc1 -30.7%, COc1cc(OC)c(Nc2c3c(nc4nc(-c5cccs5)nn24)CCCC3)cc1Cl -13.3%, Cc1nn(-c2ccccc2)c2sc(C(=O)Nc3cccc(O)c3)cc12 3.38%, Cc1ccc(-n2ncc(C(=O)Nc3c(Cl)cccc3Cl)c2C2CCNCC2)cc1 2.1%, Cc1csc2nc(COc3ccccc3NC(=O)c3ccccc3Cl)cc(=O)n12 -32.4%, COc1cc(CN(C(=O)COc2ccc(Cl)c(C)c2)c2ccccn2)cc(OC)c1OC -40.2%, Cc1ccc(-c2nc(CS(=O)(=O)CC(=O)Nc3cc(C)ccc3C)c(C)o2)cc1 -29.3%, COc1ccc(CCNC(=O)CCCn2nc(C)c3sc4ccccc4c3c2=O)cc1OC 0.098%, Cn1c(=O)cc(OCC(=O)NCc2ccc(F)cc2Cl)c2ccccc21 -15%, CCc1ccccc1Nc1nn2c(=O)c3ccc(C(=O)NC4CCCCC4)cc3nc2s1 -8.96%, COc1cc(OC)c(NC(=O)c2c3c(nn2C)-c2ccccc2SC3)cc1Cl -31.5%, Cc1ccn2c(=O)c(C(=O)NCc3ccccc3Cl)c(O)nc2c1 1.7%, COc1ccccc1OCC(O)CN1CCN(CC(=O)Nc2c(C)cccc2C)CC1 (configuration not stated), COC(=O)C(CCSC)NC(=O)c1cc2c(n(-c3ccc(OC)cc3)c1=O)CC(C)(C)CC2=O (configuration not stated) -8.3%, COc1cccc(C(=O)Nc2ccc(NC(=O)c3ccc(C(C)(C)C)cc3)cc2)c1 -33.5%, COc1cccc2c1Oc1ncccc1N(c1ccc(C(=O)NCc3cccc(C)c3)s1)C2 -28.1%, CC1(C(=O)Nc2ncc(Cc3ccc(Br)cc3)s2)Cc2ccccc2C(=O)O1 (configuration not stated) -47.1%, Cc1ccc(N2CC(NC(=O)C3CCCCC3)CC2=O)cc1C (configuration not stated) -10.9%, CCN(c1ccccc1)c1nnc(NC(=O)Nc2ccc(C)cc2)s1 0.317%, O=C(OCc1cc(=O)n2nc(-c3cccs3)sc2n1)c1ccc(F)cc1 5.56%, CCOc1ccc(C(=O)Nc2cccc(-c3nc4cccnc4s3)c2C)cc1OCC -18.9%, Cc1ccc2nc3c(cc(C#N)c(=O)n3-c3nnc(SCc4ccccc4Cl)s3)c(=O)n2c1 -1.52%, COc1ccc(/C=C/c2nc(C#N)c(N3CCC(C)CC3)o2)cc1OC -29.1%, COc1ccc(Nc2ncc3c(n2)CCN(Cc2ccc(Br)s2)C3)c(OC)c1 19.2%, CSc1ccc(CCNC(=O)c2ccc(-n3c(C)cc4c3CCCC4)cc2)cc1 15.2%, CC(=O)N1N=C(c2ccc(C)cc2)CC1c1cn(-c2ccccc2)nc1-c1cccs1 (configuration not stated) -13.7%, Cc1ccc2nc(-c3ccc(Cl)c(NC(=O)c4ccc(Br)o4)c3)oc2c1 11%, CSc1nc2c([nH]c3ccccc32)c(=O)n1-c1ccc(C)cc1 -30%, CSc1ccc(CCNC(=O)c2ccc(CS(=O)Cc3ccc(Cl)cc3)o2)cc1 (configuration not stated) -32.9%, O=C(COCc1cc(-c2ccc3c(c2)OCO3)on1)NCc1ccc(F)cc1 0.984%, Cc1ccc(C)c(N2CCN(S(=O)(=O)c3cc(C(=O)Nc4cc(Cl)cc(Cl)c4)ccc3F)CC2)c1 -3.71%, CCc1ccc2c(c1)NC(c1cccnc1)=NC(c1ccc(C(C)(C)C)cc1)=N2 -40.2%, Cc1ccc(Cl)cc1NC(=O)c1cc(S(=O)(=O)N2CCCCCC2)cn1C -27.6%, Cc1cccc(-c2nc(CSCC(=O)N3CCN(c4cccc(C)c4C)CC3)c(C)o2)c1 -30.4%, COc1cc(C2CC(=O)Nc3c2c(C)nn3-c2nncc(-c3ccccc3)n2)cc(OC)c1OC (configuration not stated) -11.9%, O=C(Nc1ccccc1Cl)c1cc2c(-c3ccccc3)nn(-c3ccccc3)c2s1 3.19%, COc1ccc(CCCc2nnc(SCC(=O)Nc3ccc(C)cc3)o2)cc1C -4.68%, Cc1ccc(-n2ncc(C(=O)NC3CCN(Cc4ccccc4)CC3)c2C2CCN(C(=O)OC(C)(C)C)CC2)cc1C -24%, O=C(Nc1ccc2nc(SCC(=O)N3CCCc4ccccc43)sc2c1)c1ccc(Cl)cc1 -30%, CCC(C(=O)NCCc1cc(OC)ccc1OC)n1nc(C)c2c(C)n(-c3ccccc3)nc2c1=O (configuration not stated) -11.6%, CCOc1ccccc1NC(=O)Cn1c(=O)n(Cc2cccs2)c(=O)c2cccnc21 -22.2%, Fc1ccc(-c2nn(-c3ccc(Cl)cc3)c3c2cnc2ccc(F)cc23)cc1 -4.42%, COc1ccc(-n2c(=O)c3ccccc3n(Cc3ccccc3Cl)c2=O)cc1 -22.4%, CC(Sc1nc(=O)cc(N)n1CCc1ccccc1)C(=O)Nc1cccc(Cl)c1 (configuration not stated) -4.16%, Cc1ccc(C)c(CN2C(=O)c3ccccc3S(=O)c3ccc(C(=O)N4CCOCC4)cc32)c1 (configuration not stated) -23.6%, COc1ccc(C(=O)Nc2nc3n(n2)C(c2ccc(Cl)cc2)C=C(c2ccccc2)N3)cc1OC (configuration not stated) -20.2%, COc1ccccc1N1CCN(S(=O)(=O)c2c(C)sc3ncn(CC(=O)Nc4ccc(C)cc4Br)c(=O)c23)CC1 13.7%, Cc1ccc(Nc2sc(C(=O)c3ccc(F)cc3)c(N)c2S(=O)(=O)c2ccc(C)cc2)cc1 -20.4%
